Reference: PubChem BioAssay AID1346428 (National Center for Advancing Translational Sciences (NCATS), 2018)
Several values for one entry are separate records, joined by “and”; a condition that tells them apart may be missing. Equal values may be shown once. The whole screen tested about 48,000 compounds, of which about 1,200 (2.5%) were called active. About 2% were inconclusive and are not listed.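 Rule for the calls: active = activation of at least 60% and not above a set upper limit (about 1 call in 100 departs from these limits); inconclusive = activation of 40% to 60%, or above that upper limit; inactive = activation under 40%.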 This is one part of the list.

These compounds were tested against Probable G-protein coupled receptor 32 (Homo sapiens) (UniProt O75388) (assay: qHTS for Agonists of Human Resolvin D1 Receptor DRV1). Conditions: CHO-K1 GPR32 beta-arrestin PathHunter luminescence, 90 min; at 76.9 µM; stronger effect = higher value; zero percent set by DMSO-only wells.
Sequence of UniProt O75388 (O75388 whole entry, looked up): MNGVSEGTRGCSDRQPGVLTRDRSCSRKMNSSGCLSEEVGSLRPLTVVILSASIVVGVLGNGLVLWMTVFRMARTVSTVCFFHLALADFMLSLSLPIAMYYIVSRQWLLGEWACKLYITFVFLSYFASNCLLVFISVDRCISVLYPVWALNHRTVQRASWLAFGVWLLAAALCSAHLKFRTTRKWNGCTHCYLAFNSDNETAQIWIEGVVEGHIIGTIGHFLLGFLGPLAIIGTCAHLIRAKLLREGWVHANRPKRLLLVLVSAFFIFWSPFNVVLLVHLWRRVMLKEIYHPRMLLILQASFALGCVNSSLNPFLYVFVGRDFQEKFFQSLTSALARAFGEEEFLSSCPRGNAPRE
Summary of the method: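 Using DMSO wells as EC0, agonist-induced signal was taken as chemiluminescence from beta-Gal reconstituted upon beta-arrestin recruitment to GPR32 in CHO-K1 cells after 90 min compound treatment.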
For CCOc1ccc(CCNC(=O)CCSCc2cccc(Cl)c2)cc1OCC, the activation was inactive: -29.6%. For Oc1c(C(c2ccc(Cl)cc2Cl)N2CCCC2)sc2nc(-c3ccco3)nn12 (stereo unspecified), the activation was inactive: -5.97%. With CCCCOC(=O)c1ccc(Nc2nc3ccc(C)cc3n3cnnc23)cc1 the activation was inactive: -8.12%. CCc1ccccc1NC(=O)COC(=O)c1cn(CC)c2nc(C)ccc2c1=O was tested, and the activation was inactive: -0.0916%. O=C(Nc1cc(Cl)ccc1O)c1cc2nc(-c3ccc4c(c3)OCO4)cc(C(F)(F)F)n2n1 was tested, and the activation was inactive: -13.1%. CN(C)c1ccc(NC(=O)C2(c3cccs3)CCOCC2)cc1 was tested, and the activation was inactive: -29.7%. For O=C(CSCc1ccc(F)cc1)N1CCc2c([nH]c3ccccc23)C1c1ccccc1 (stereo unspecified), the activation was inactive: -37.6%. For CCCOc1ccc(Cn2c(=O)sc3ccccc32)cc1, the activation was inactive: -5.52%. For O=C(c1cc(O)c(O)c([N+](=O)[O-])c1)c1ccccc1F, the activation was inactive: -35.9%. COc1ccccc1NC(=O)c1c(NC(=O)c2cccs2)sc2c1CCC(C(C)(C)C)C2 (stereo unspecified) was tested, and the activation was inactive: -1.17%. Cc1ccc(-c2nc(SCC(=O)Nc3cc(C)on3)c3c(=O)n(C)c(=O)n(C)c3n2)cc1 was tested, and the activation was inactive: 2.27%. In the case of O=C(CC(=O)Nc1ccccc1F)Nc1ccc2nc3n(c(=O)c2c1)CCCCC3, the activation is reported as inactive: -14.7%. Cc1cccc(N2CCN(C(=O)c3ccc4c(c3)N(Cc3cccc(Cl)c3)C(=O)c3ccccc3S4=O)CC2)c1C (stereo unspecified) was tested, and the activation was inactive: -20.8%. CCc1ccc(OC(=O)c2sc3ncn(Cc4cccc(F)c4)c(=O)c3c2C)cc1 was tested, and the activation was inactive: -8.6%. For CCCCCNc1nc2c(-c3ccccc3)nnn2c2ccccc12, the activation was inactive: -5.51%. With CCN(CCCCOC(=O)c1ccc(OC)c(OC)c1)C(C)Cc1ccc(OC)cc1 (stereo unspecified) the activation was inactive: -9.74%. CCOc1cc(Cl)c(S(=O)(=O)n2cc(C)nc2CC)cc1Cl was tested, and the activation was inactive: 15%. In the case of COc1cccc(NC(=O)Nc2cc(-c3cn4cccnc4n3)ccc2OC)c1, the activation is reported as inactive: -1.06%. In the case of CCn1cc2nc(SCc3ccccc3)n(Cc3ccc(C)cc3)c(=O)c2n1, the activation is reported as inactive: 2.99%. O=C(NCC(c1ccco1)S(=O)(=O)c1cccs1)c1ccc(C(F)(F)F)cc1 (stereo unspecified) was tested, and the activation was inactive: -2.63%. In the case of CN(C)c1ccc(CNS(=O)(=O)c2csc(C(N)=O)c2)cc1, the activation is reported as inactive: 1.13%. With Cc1cc(C(C)(C)C)cc(C)c1CC1=NCCN1 the activation was inactive: 5.08% and inactive: -7.45%. With COc1ccc(C)cc1NC(=O)c1cc(S(=O)(=O)NCCC2=CCCCC2)ccc1F the activation was inactive: -24.8%. Clc1ccc(-c2noc3ncnc(N4CCCCC4)c23)cc1 was tested, and the activation was active: 82.5%. COc1ccc(-c2noc(CSc3nnc(C)n3-c3ccc(C)cc3)n2)cc1 was tested, and the activation was inactive: -2.18%. For Cn1c(=O)c2c(nc(NCc3ccccc3)n2Cc2ccc(Cl)c(Cl)c2)n(C)c1=O, the activation was inactive: 22.1%. COc1ccc(C(=O)NCCc2nc3ccccc3[nH]2)cc1 was tested, and the activation was inactive: 1.75%. For CCCSc1nc2c(c(=O)[nH]1)C(c1ccc(O)c(OCC)c1)CC(=O)N2 (stereo unspecified), the activation was inactive: -9.18%. COc1ccc(N2CC(C(=O)Nc3ccccc3-c3nc(-c4ccc(C)cc4)no3)CC2=O)cc1 (stereo unspecified) was tested, and the activation was inactive: 2.14%. For CCOc1ccc(C(CC(=O)Nc2ccc(C(=O)OC)cc2)N2Cc3ccccc3C2=O)cc1OC (stereo unspecified), the activation was inactive: -3.36%. O=c1[nH]ccc2c(O)cccc12 was tested, and the activation was inactive: -9.86%. With COc1cccc(NC(=O)c2oc3ccc(S(=O)(=O)N4CCC5(CC4)OCCO5)cc3c2C)c1 the activation was inactive: 9.26%. CC(C)(C)c1ccc(OCc2cc(=O)n3c4c(sc3n2)CCCC4)cc1 was tested, and the activation was inactive: -5.54%. Cc1ccccc1CSCc1ccc(C(=O)NCCc2ccccc2)o1 was tested, and the activation was inactive: 0.56%. In the case of CCOC(=O)C1=C(CN(C)Cc2ccccc2)NC(=O)NC1c1ccc(OC(C)C)cc1 (stereo unspecified), the activation is reported as inactive: 3.03%. In the case of CC(C)c1ccc(Nc2c(-c3ccsc3)nc3ccc(Cl)cn23)cc1, the activation is reported as inactive: -6.03%. In the case of Cc1ccc2nc(NCCc3ccc(Cl)cc3)c3nncn3c2c1, the activation is reported as inactive: -1.36%. In the case of COc1ccc(C)cc1NC(=O)Cc1ccc(NC(=O)N2CCCCc3ccccc32)cc1, the activation is reported as inactive: -3.05%. With Cc1ccc(C)c(Oc2c(C(F)(F)F)oc3c(CN4CCN(C)CC4)c(O)ccc3c2=O)c1 the activation was inactive: -14.3%. In the case of C[C@@H]1C[C@H]2[C@@H]3CCC4=CC(=O)C=C[C@]4(C)[C@@]3(F)[C@@H](O)C[C@]2(C)[C@H]1C(=O)CO, the activation is reported as inactive: 6.34%. In the case of C#CC(C)(CC)OC(=O)c1ccccc1C(=O)O (stereo unspecified), the activation is reported as inactive: 37.3%. CCn1cc(C(=O)NCc2ccccc2Cl)c(=O)c2cc(S(=O)(=O)N3CCOCC3)ccc21 was tested, and the activation was inactive: -1.37%. For CCC(=O)C1=C(c2ccccc2)N(C(=O)CC)n2c(nnc2C2CCCCC2)S1, the activation was inactive: -18.5%. In the case of O=C(Nc1ccccc1[N+](=O)[O-])c1csnn1, the activation is reported as inactive: -1.72%. For CCCOc1ccc(CNC(=O)c2cc3oc4ccccc4c3n2C)cc1, the activation was inactive: -20.9%. COC(=O)c1c(SC)nc2ccccc2c1OCc1cc(C)ccc1C was tested, and the activation was inactive: -10.3%. For Cc1ccc(CNC(=O)c2ccc(NC(=O)c3nsc4ccccc34)cc2)cc1, the activation was inactive: -9.04%. With O=C(Nc1ccc2nc(SCC(=O)N3CCc4ccccc43)sc2c1)c1ccc(Cl)cc1 the activation was inactive: 16.5%. For O=C(CSc1nc(-c2cccs2)cc(C(F)(F)F)n1)Nc1ccccc1Cl, the activation was inactive: -1.17%. For CCN(CC)CCOCCOC(=O)C1(c2ccccc2)CCCC1, the activation was inactive: 24% and inactive: 5.54%. For Cc1ccc(NC(=O)CN2C(=O)C(c3ccc(F)cc3)=NC2(C)C)c(C)c1, the activation was inactive: -5.78%. For CCOc1ccccc1NC(=O)C(=O)NCC(c1cccnc1)N1CCN(c2ccccc2)CC1 (stereo unspecified), the activation was inactive: -17.2%. With Cc1ccc(N2CCN(C(=O)Nc3cn(CC(C)C)c(=O)c4ccccc34)CC2)c(C)c1 the activation was inactive: -7.07%. For Cc1ccc(NC(=O)c2cc(-c3cccs3)nc3ccccc23)c(C)c1, the activation was inactive: -1.57%. CC(C)CCn1c(=O)c2sccc2n2c(CCCC(=O)Nc3ccc(F)c(Cl)c3)nnc12 was tested, and the activation was inactive: -20.4%. For O=C(NCc1ccc(F)cc1Cl)c1ccc(CSCc2ccccc2Cl)o1, the activation was inactive: -33.8%. For CC(C)Oc1ccc(CNC(=O)c2cnc3sc(N4CCCCCC4)nn3c2=O)cc1, the activation was inactive: -3.54%. For COc1ccccc1NC(=O)Cn1c(=O)n(Cc2nc(C)no2)c(=O)c2cc3c(cc21)OCO3, the activation was inactive: -6.85%. In the case of COc1ccccc1NC(=O)N1CCOc2ccccc21, the activation is reported as inactive: 30.5%. For Cc1cc(C)n2nc(CNS(=O)(=O)c3ccc(F)cc3)nc2n1, the activation was inactive: -9.4%. With CCOc1ccc(/C=C/c2nc(C#N)c(N3CCCCCC3)o2)cc1 the activation was inactive: -21.3%. In the case of Cc1ccc(CNC(=O)c2ccc(CSCc3c(F)cccc3Cl)o2)cc1, the activation is reported as inactive: -38.6%. In the case of COc1cccc(CNC(=O)c2ccc(CN3CC(=O)N4CCCCC4C3=O)cc2)c1 (stereo unspecified), the activation is reported as inactive: -15.4%. In the case of COc1ccccc1/C=C(\C#N)C(=O)NCC1CCCO1 (stereo unspecified), the activation is reported as inactive: -0.397%. In the case of CCn1c(C(=O)NCc2ccccc2)cc2sc(Cl)cc21, the activation is reported as inactive: -16.4%. With COC(=O)c1cc2oc3ccccc3c2n1CC(=O)Nc1ccc(C)cc1Cl the activation was inactive: -4.5%. For CCCN(CCC)CCNC(=O)Cn1cnc2sc(C)c(S(=O)(=O)N3CCN(c4ccccc4OC)CC3)c2c1=O, the activation was inactive: 11.1%. CCOc1ccc(-n2c(SCC(=O)N3CCCc4ccccc43)nc3c([nH]c4ccccc43)c2=O)cc1 was tested, and the activation was inactive: -9.83%. O=C(CCn1c(=O)c2ccccc2n(Cc2ccc(Cl)cc2)c1=O)NCc1ccc2c(c1)OCO2 was tested, and the activation was inactive: -2.02%. In the case of CCOc1ccccc1NC(=O)CCS(=O)(=O)c1ccc(OC)cc1, the activation is reported as inactive: -7.18%. With CCc1ccc(NC(=O)c2cc(CN3CCOCC3)on2)cc1 the activation was inactive: 19.7%. In the case of CN(c1ccc(Cl)cc1)S(=O)(=O)c1nnc(NC(=O)c2ccco2)s1, the activation is reported as inactive: 21.9%. In the case of CCOC(=O)c1[nH]c(C)c(C(=O)NCCc2ccccc2)c1C, the activation is reported as active: 84.6%. In the case of COc1ccc(CCNC(=O)C(=O)Nc2ccc(C)c(C)c2)cc1OC, the activation is reported as inactive: -4.8%. CCCCC(=O)Nc1cccc(-c2nc3ccccc3s2)c1 was tested, and the activation was active: 91.8%. CCCCN(C)CC(O)Cn1cc(/C=C/C(=O)c2ccc(OCC)cc2)c2ccccc21 (stereo unspecified) was tested, and the activation was inactive: 17%. For Cc1cccc(-n2ccnc2SCC(=O)Nc2cc(C(F)(F)F)ccc2Cl)c1, the activation was inactive: 5.71%. In the case of CCOC(=O)c1ccc(CN(Cc2ccc(Cl)cc2Cl)S(=O)(=O)c2cccc(Cl)c2)cc1, the activation is reported as inactive: -15.8%. For Cc1cc(-c2ccc(C)c(S(=O)(=O)N(C(C)C)C3CCCCC3)c2)on1, the activation was inactive: -13.7%. With N[C@H]1CONC1=O the activation was inactive: 4.29%. With O=C(O)CCSc1nnc(-c2ccc(Cl)cc2Cl)o1 the activation was inactive: 19.5%. CC1(C)O[C@H]2[C@@H](O1)[C@@H](C(=O)Nc1cc(F)ccc1F)O[C@@H]1OC(C)(C)O[C@@H]12 was tested, and the activation was inactive: -10.6%. CCn1c(=O)c2c(nc(C=Cc3ccc(OC)c(OC)c3)n2C)n(CC)c1=O was tested, and the activation was inactive: -16%. With Cc1cccc(-c2cc(C(=O)O)c3c(-c4ccc(F)cc4)[nH]nc3n2)c1 the activation was inactive: -11.5%. With Cc1ccc2nc(N(Cc3cccnc3)C(=O)CCc3ccccc3)sc2c1 the activation was inactive: -12.5%. With COc1cc2c(cc1OC)C(C(C(=O)N(CCc1ccc(OC)c(OC)c1OC)CCc1ccc(OC)c(OC)c1OC)c1ccccc1)=NCC2 (stereo unspecified) the activation was inactive: 30.1%.
